# Among all 350,000 compounds or so, about 260 (0.074%) were called active. The inconclusive results got no clear call from the source; some entries with a clear call stand among them for comparison. Calls come from the whole dose curve; as a rule, active = well fitted inhibition curve with a large enough effect; inconclusive = small, poorly fitted or top-dose-only effect; inactive = no such curve, though single readings can be large or run the other way. Where the call is inconclusive, the potency comes from a doubtful curve fit.
# Target: Ferritin light chain (Equus caballus) (UniProt P02791)
# Sequence of UniProt P02791 (P02791 whole entry, looked up): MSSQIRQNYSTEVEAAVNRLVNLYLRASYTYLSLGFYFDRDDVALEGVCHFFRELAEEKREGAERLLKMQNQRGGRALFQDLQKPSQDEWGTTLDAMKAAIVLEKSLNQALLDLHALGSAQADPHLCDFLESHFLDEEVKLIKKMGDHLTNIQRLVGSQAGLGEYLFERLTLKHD
# Experiment: qHTS Assay for Identification of Novel General Anesthetics; note: nearly all actives have a fitted effect of over 20% in size
# Details: apoferritin/1-aminoanthracene competitive binding, fluorescence; activity change, negative = displacement: at 77.5 µM (top of the series)
# Source text: Source: NIH Chemical Genomics Center [NCGC]
# Assay Submitter: Roderic Eckenhoff, University of Pennsylvania
# Screening Center PI: Christopher P. Austin, NIH
# Probe Development: NIH Chemical Genomics Center [NCGC]
# Anesthetic development has remained a largely empirical process. There are growing concerns about the cognitive effects of known general anesthetics and acceleration of the onset of neurodegenerative disease. The compounds' toxicity and multiple specific binding targets in the mammalian brain [4] has made them less attractive as drug leads. In this assay, a GABAergic mimetic model system, apoferritin and a profluorescent 1-aminoanthracene ligand (1-AMA), was used to construct a competitive binding assay for identification of novel general anesthetics. The assay was validated for 1-AMA using other known anesthetics, such as isoflurane (CID:3763) and propofol (CID: 4943), [6].
# [1] S.L. Bianchi, T. Tran, C. Liu, S. Lin, Y. Li, J.M. Keller, R.G. Eckenhoff, and M.F. Eckenhoff, Brain and behavior changes in 12-month-old Tg2576 and nontransgenic mice exposed to anesthetics. Neurobiol Aging 29 (2008) 1002-10.
# [2] Z. Xie, Y. Dong, U. Maeda, R.D. Moir, W. Xia, D.J. Culley, G. Crosby, and R.E. Tanzi, The inhalation anesthetic isoflurane induces a vicious cycle of apoptosis and amyloid beta-protein accumulation. J Neurosci 27 (2007) 1247-54.
# [3] P. Honegger, and J.M. Matthieu, Selective toxicity of the general anesthetic propofol for GABAergic neurons in rat brain cell cultures.
# [4] M.F. Eckenhoff, K. Chan, and R.G. Eckenhoff, Multiple specific binding targets for inhaled anesthetics in the mammalian brain. J Pharmacol Exp Ther 300 (2002) 172-9.
# [5] C.A. Butts, J. Xi, G. Brannigan, A.A. Saad, S.P. Venkatachalan, R.A. Pearce, M.L. Klein, R.G. Eckenhoff, and I.J. Dmochowski, Identification of a fluorescent general anesthetic, 1-aminoanthracene. Proc Natl Acad Sci U S A 106 (2009) 6501-6.
# [6] W.A. Lea, J. Xi, A. Jadhav, L. Lu, C.P. Austin, A. Simeonov, and R.G. Eckenhoff, A high-throughput approach for identification of novel general anesthetics. PLoS One 4 (2009) e7150.
# Three uL of reagents (free 1-AMA (50% saturated solution of 1-aminoanthracene
# in PBS) in columns 3, 4 as negative control and 1-AMA/apoferritin mixture (10 uM horse-spleen apoferritin in 50% saturated 1-aminoanthracene in PBS) in columns 1, 2, 5-48) was dispensed into 1536-well Greiner black assay plates. Compounds (23 nL) were transferred via Kalypsys pintool equipped with 1,536-pin array (10 nL slotted pins, V&P Scientific, San Diego, CA). Titration of the positive control, propofol, were delivered via pin transfer from separate control plates to the 2nd column of each assay plate. The starting concentration of the control, dissolved in DMSO, was at 160 mM, followed by two-fold dilution points in duplicate, for a total of 16 concentrations. The plates were incubated for 10 min at room temperature, and then read on an EnVision HTS multilabel reader (Perkin-Elmer, Waltham, MA) (end point read, 3 min/plate) using Fura2 BFP excitation filter (380 nm, bandwidth 10 nm) and fluorescein emission filter (535 nm, bandwidth 25 nm) set. A LANCE/DELFIA dichroic mirror with a cutoff wavelength at 400 nm was used to maximize signal accuracy and strength. Vehicle-only plates, with DMSO being pin-transferred to the entire column 5-48 compound area, were inserted uniformly at the beginning and the end of each library in order to monitor for and record any shifts in the background. Activity was computed as the normalized fluorescence response relative to free 1-AMA and 1-AMA/apoferritin complex values. Concentration-effect relationships were derived by using curve fitting algorithms developed in-house (http://ncgc.nih.gov/pub/openhts/). A four parameter Hill equation was fitted to the concentration-response data by minimizing the residual error between the modeled and observed responses.
# % is set by controls: 0 for no effect and ±100 for the full control effect; potency is the fitted concentration of half-maximal effect; tags give direction and shape of the fitted curve.
SMILES,"activity change, negative = displacement",Potency
COc1ccc(-c2nc(Cn3c(SCc4ccc(C)cc4)nc4cccnc43)c(C)o2)cc1OC,inactive: -8.41%,
CC(=O)Nc1ccc(C2(O)COc3ccccc3O2)cc1 (centres undefined),,"inconclusive: 28.2 µM [inhibitor, partial curve]"
COc1ccc(C(=O)CC2(O)C(=O)N(Cc3ccccc3Cl)c3ccccc32)cc1 (centres undefined),,"inconclusive: 8.91 µM [inhibitor, partial curve]"
CCOc1cc(C)c(S(=O)(=O)Nc2ccc(F)cc2)cc1C,,"inconclusive: 10 µM [inhibitor, partial curve]"
Cc1[nH]nc(SCC(=O)Nc2cccc(O)c2)c1[N+](=O)[O-],inactive: -4.04%,
Cc1cc(-c2ccccc2)nc(Oc2cccc(C(F)(F)F)c2)c1S(C)(=O)=O,,"inconclusive: 14.1 µM [inhibitor, partial curve]"
CCCS(=O)(=O)c1ncc(Cl)c(C(=O)Nc2scc(-c3ccccc3)c2C(=O)OCC)n1,,"inconclusive: 31.6 µM [inhibitor, partial curve]"
CCCCN(CCCC)S(=O)(=O)c1ccc(SCC(=O)OCC)c([N+](=O)[O-])c1,,"inconclusive: 12.6 µM [inhibitor, partial curve]"
CN(C)S(=O)(=O)c1ccc2nnn(OCC(=O)NC34CC5CC(CC(C5)C3)C4)c2c1,,"inconclusive: 28.2 µM [inhibitor, partial curve, poor fit]"
Cn1c(Cn2cnc(Cl)c2Cl)nc2ccccc21,inactive: -8.12%,
CS(=O)(=O)NCCSCc1ccc(Cl)cc1,,"inconclusive: 8.91 µM [inhibitor, partial curve]"
O=S(=O)(c1ccccc1)c1nc(-c2ccc(Cl)cc2Cl)oc1N1CCCCCC1,inactive: 6.85%,
O=C(NCCC1=CCCCC1)c1cc(COc2c(F)cccc2F)on1,,"inconclusive: 39.8 µM [inhibitor, single point]"
CC(C)(C)C1=NN(c2ccc([N+](=O)[O-])cc2)C(c2ccccc2)C1 (centres undefined),,"inconclusive: 11.2 µM [inhibitor, partial curve]"
O=C(COC(=O)c1ccccc1F)c1ccc(-n2nncc2-c2ccco2)cc1,,"inconclusive: 28.2 µM [inhibitor, partial curve]"
COc1cccc(C(=O)N(Cc2cc3cc(C)ccc3[nH]c2=O)CC2CCCO2)c1 (centres undefined),,"inconclusive: 44.7 µM [inhibitor, single point]"
CC(C)(C)c1ccc(Oc2ccc(NC(=O)c3ccco3)cn2)cc1,,"inconclusive: 22.4 µM [inhibitor, partial curve]"
CCC1=Nc2cc(C(=O)N3CCCCC3)ccc2Sc2ccc(C)cc21,inconclusive: -28.1% [inhibitor],
CC(=O)c1c(N2CCN(c3cccc(Cl)c3)CC2)nc(=S)n(-c2ccccc2)c1C,inactive: -7.19%,
O=C(CCl)NCc1c(Cl)cccc1-n1cccc1,,"inconclusive: 44.7 µM [inhibitor, partial curve, poor fit]"
N=c1c[n+](-c2ccc(Cl)cc2)[n-]o1,,"inconclusive: 44.7 µM [inhibitor, partial curve]"
O=C(NCc1ccco1)c1cc([N+](=O)[O-])ccc1N1CCCCC1,,"inconclusive: 39.8 µM [inhibitor, partial curve]"
COc1ccc2nc(C)cc(Sc3nc4ccccc4s3)c2c1,,"inconclusive: 22.4 µM [inhibitor, partial curve]"

SMILES,"activity change, negative = displacement",Potency
Cc1ccc(C)c(Nc2nc(-c3cccnc3)cs2)c1,,"inconclusive: 50.1 µM [inhibitor, single point]"
CC1=NN(c2nc(-c3ccc(Cl)cc3)cs2)C(=O)C1,inactive: -5.13%,
CC(C)(C)CC(C)(C)NC(=O)CSCC(=O)Nc1ccc2ccccc2c1,,"inconclusive: 15.8 µM [inhibitor, partial curve]"
Cc1ccccc1NS(=O)(=O)c1ccc(Br)s1,,"inconclusive: 11.2 µM [inhibitor, single point]"
Cc1cc(C)cc(NC(=O)c2ccc(NC3=NC4CS(=O)(=O)CC4S3)cc2)c1 (centres undefined),,"inconclusive: 28.2 µM [inhibitor, single point]"
CN(Cc1ccccc1)S(=O)(=O)c1ccc(F)c(C(=O)Nc2cccc(Cl)c2Cl)c1,,"inconclusive: 3.55 µM [inhibitor, full curve, poor fit]"
CCOC(=O)c1cnc(SCc2nc(N)nc(Nc3ccc(OC)cc3)n2)nc1N,,"inconclusive: 44.7 µM [inhibitor, partial curve]"
O=C(NCc1cccs1)c1nc2c(nnn2Cc2ccccc2Cl)c(=O)[nH]1,inactive: -1.87%,
Cn1c(N2CCCC2)nc2c1c(=O)n(Cc1ccc(Cl)cc1)c(=O)n2C,inactive: -15.4%,
CCOC(=O)c1c(NC(=O)c2ccc(S(=O)(=O)N(CCOC)CCOC)cc2)sc2c1CC(C)(C)NC2(C)C,inactive: -12.2%,
CCOc1ccc(C2=NC(c3cccs3)=Nc3ccc(C(C)C)cc3N2)cc1,,"inconclusive: 15.8 µM [inhibitor, partial curve]"
O=C(Nc1ccccc1)C1COc2ccccc2O1 (centres undefined),,"inconclusive: 22.4 µM [inhibitor, partial curve]"
Cc1cccc(CC2C(=O)Nc3ccccc32)c1 (centres undefined),,"inconclusive: 35.5 µM [inhibitor, single point]"
CCOc1ccc2nc(SCC(=O)NC(=O)NCc3ccco3)[nH]c2c1,,"inconclusive: 31.6 µM [inhibitor, partial curve]"
O=C(Nc1ccc(F)cc1F)c1cc2n(n1)C(C(F)(F)F)C1CCCCC1N2 (centres undefined),inactive: -7.42%,
Cc1cc(=O)oc2cc(OCC3CC(c4ccc(N(C)C)cc4)=NO3)ccc12 (centres undefined),,"inconclusive: 39.8 µM [inhibitor, partial curve]"
COCCSc1nnc(NC(=O)Cc2ccc(OC)c(OC)c2)s1,,"inconclusive: 35.5 µM [inhibitor, partial curve]"
Clc1nssc1=Nc1ccc(Br)cc1,,"inconclusive: 28.2 µM [inhibitor, single point]"
CCOc1ccc(NC(=O)C2CC(=O)N=C(N)S2)cc1 (centres undefined),,"inconclusive: 56.2 µM [inhibitor, single point]"
CC(=O)Nc1ncc(Cc2cccc(Cl)c2)s1,,"inconclusive: 35.5 µM [inhibitor, partial curve]"
COc1cccc(-n2c(SCC(=O)NC3CCCCC3)nc3n[nH]c(C)c3c2=N)c1,,"inconclusive: 4.47 µM [inhibitor, full curve]"
CCOC(=O)N1CCC(Nc2cccc(SC)c2)CC1,,"inconclusive: 39.8 µM [inhibitor, single point]"
Cc1ccc(C)c(NCC(O)c2ccccc2)c1 (centres undefined),,"inconclusive: 11.2 µM [inhibitor, partial curve]"

SMILES,"activity change, negative = displacement",Potency
N#CC(C#N)=C/C=C(\Nc1ccc(Cl)cc1)c1ccc(Cl)cc1,inactive: -17.8%,
O=C(CS(=O)(=O)c1c[nH]c2ccccc12)Nc1ccc(F)cc1,inactive: -2.21%,
O=C1Cc2ccccc2Sc2c(OCCN3CCCCC3)cccc21,inactive: -6.38%,
CC(Oc1ccc(Cl)cc1)C(=O)OCC(=O)Nc1ncc(Cl)cc1Cl (centres undefined),,"inconclusive: 31.6 µM [inhibitor, partial curve]"
N/C(=N\OC(=O)c1ccco1)c1cccc(Br)c1,,"inconclusive: 28.2 µM [inhibitor, partial curve]"
CCCCCCOC(=O)C(C#N)c1nc2ccccc2nc1N1CCN(C)CC1 (centres undefined),,"inconclusive: 22.4 µM [inhibitor, partial curve]"
CCOc1ccc(Cn2nnc(C(=O)NCc3ccccc3)c2N)cc1,,"inconclusive: 3.16 µM [inhibitor, full curve]"
CCc1ccc(C2=CC(c3cccc(OC)c3OC)n3c(nc4ccccc43)N2)cc1 (centres undefined),inactive: -1.89%,
CC1=NN(C(N)=S)C(=O)C1N=Nc1ccc(C)cc1C (centres undefined),,"inconclusive: 28.2 µM [inhibitor, partial curve]"
COc1ccc([C@@]2(O)c3c(ccc(CC=C(C)C)c3O)NC(=O)[C@@H]2OC)cc1,,"inconclusive: 22.4 µM [inhibitor, partial curve]"
Cc1ccc2c(c1)CCCN2C(=O)CSc1ccccc1,,"inconclusive: 15.8 µM [inhibitor, partial curve]"
N#CCCN1CCN(C(=S)c2ccc(-c3ccc(Cl)c(Cl)c3)o2)CC1,,"inconclusive: 39.8 µM [inhibitor, partial curve]"
O=C(NN1CCOCC1)c1ccc(Cl)c([N+](=O)[O-])c1,inactive: -3.41%,
CCCCCOc1ccc(C(=O)CCN2CCOCC2)cc1,,"inconclusive: 22.4 µM [inhibitor, partial curve]"
COc1ccc(C(=O)Nc2ccccc2)cc1NC(=O)c1ccc([N+](=O)[O-])cc1,,"inconclusive: 39.8 µM [inhibitor, single point]"
O=c1c2ccccc2oc2ccc(NCCCn3ccnc3)cc12,inactive: -0.724%,
N#CC(C#N)=C1C=CC=CN1/C(=C\c1ccco1)C(=O)c1ccc(Cl)cc1,inactive: -5.83%,
CC(C)(C)C1CCc2onc(C(=O)Nc3cccc(O)c3)c2C1 (centres undefined),,"inconclusive: 4.47 µM [inhibitor, partial curve]"
CCc1ccc(Nc2nnc(SCC(=O)Nc3cccnc3Cl)s2)cc1,,"inconclusive: 50.1 µM [inhibitor, single point]"
CN(Cc1ccccc1)S(=O)(=O)c1ccc2[nH]cc(C(=O)NCC3CCCO3)c(=O)c2c1 (centres undefined),,"inconclusive: 10 µM [inhibitor, partial curve]"
Cc1cccc(NC(=O)c2cccc(NC(=O)c3ccccc3)c2)n1,,"inconclusive: 15.8 µM [inhibitor, partial curve]"
Cc1ccc(-n2ncc3c(NCCc4ccccc4)ncnc32)cc1Cl,inactive: -3.82%,
CCOc1ccc(-c2cc(C(=O)NCCCn3ccnc3)c3ccccc3n2)cc1,inactive: -14%,
